According to patent publication US5304633A, “Fragments of lactoferrin having potent antimicrobial activity” (priority 1990, dated 1994):
Part of at least one peptide drawing is inferred or uncertain, most often the ends.

Legend:
[1] = tested on: Bifidobacterium breve ATCC-15700; test: Survival after 60 min with peptide (Experiment 13); format: cell-based; settings: peptide 31 μg/ml, PYG medium, anaerobic, 37° C.
[2] = tested on: Bifidobacterium infantis ATCC-15697; test: Survival after 60 min with peptide (Experiment 13); format: cell-based; settings: peptide 31 μg/ml, PYG medium, anaerobic, 37° C.
[3] = tested on: Enterococcus faecalis ATCC-E19433; test: Survival after 60 min with peptide (Experiment 13); format: cell-based; settings: peptide 31 μg/ml, PYG medium, 30° C.
[4] = tested on: Bacteroides vulgatus MMI-S601; test: Survival after 60 min with peptide (Experiment 13); format: cell-based; settings: peptide 31 μg/ml, PYG medium, anaerobic, 37° C.
[5] = tested on: Escherichia coli MMI-0111; test: MIC in liquid medium (Experiment 12); format: cell-based; settings: 37° C.
[6] = tested on: Yersinia enterocolitica IID-981; test: MIC in liquid medium (Experiment 12); format: cell-based; settings: 37° C.
[7] = tested on: Campylobacter jejuni JCM-2013; test: Survival after 60 min with peptide (Experiment 13); settings: peptide 31 μg/ml, PYG medium, microaerophilic (Campypak gas system), 37° C.
[8] = tested on: Pseudomonas aeruginosa IFO-3446; test: MIC in liquid medium (Experiment 12); format: cell-based; settings: 37° C.
[9] = tested on: Streptococcus mutans JCM-5705T; test: Survival after 60 min with peptide (Experiment 13); format: cell-based; settings: peptide 31 μg/ml, PYG medium, 30° C.
[10] = tested on: Candida albicans JCM-1542T; test: Survival after 60 min with peptide (Experiment 13); format: cell-based; settings: peptide 31 μg/ml, PYG medium, 30° C.
[11] = tested on: Bacillus subtilis ATCC-6633; test: MIC in liquid medium (Experiment 12); format: cell-based; settings: 37° C.
[12] = tested on: Salmonella enteriditis IID-604; test: MIC in liquid medium (Experiment 12); format: cell-based; settings: 37° C.
[13] = tested on: Staphylococcus hominus JCM-2419T; test: Survival after 60 min with peptide (Experiment 13); format: cell-based; settings: peptide 31 μg/ml, PYG medium, 30° C.
[14] = tested on: Staphylococcus aureus JCM-2151; test: Survival after 60 min with peptide (Experiment 13); format: cell-based; settings: peptide 31 μg/ml, PYG medium, 30° C.

CC[C@H](C)[C@@H]1NC(=O)[C@H](CO)NC(=O)[C@@H]2CCCN2C(=O)[C@H](C)NC(=O)CNC(=O)[C@H](CC(C)C)NC(=O)[C@H](CCCCN)NC(=O)[C@H](CCCCN)NC(=O)[C@H](CCSC)NC(=O)[C@H](CCCNC(=N)N)NC(=O)[C@H](Cc2c[nH]c3ccccc23)NC(=O)[C@H](CCC(N)=O)NC(=O)[C@H](Cc2c[nH]c3ccccc23)NC(=O)[C@H](CCCNC(=N)N)NC(=O)[C@H](CCCNC(=N)N)NC(=O)[C@@H](NC(=O)[C@H](CCCCN)NC(=O)[C@@H](N)Cc2ccccc2)CSSC[C@@H](C(=O)N[C@H](C(=O)N[C@@H](CCCNC(=N)N)C(=O)N[C@@H](CCCNC(=N)N)C(=O)N[C@@H](C)C(=O)N[C@@H](Cc2ccccc2)C(=O)O)C(C)C)NC(=O)[C@H]([C@@H](C)O)NC1=O [antimicrobial peptide of Example 1]
Live bacteria count in 1 ml after 60 min. [1]: 4.6 × 10^4 | Survival rate ([2]; 60 min): < 0.05% | Live bacteria count in 1 ml after 60 min. [2]: < 100 | Live bacteria count in 1 ml after 60 min. [3]: 1.1 × 10^6 | Survival rate ([3]; 60 min): 55% | Live bacteria count in 1 ml after 60 min. [4]: 500 | Minimum Inhibitory Concentration ([5]; PYG medium): 12 µg/mL | Minimum Inhibitory Concentration ([5]; Peptone medium): 6 µg/mL | Minimum Inhibitory Concentration ([6]; PYG medium): 24 µg/mL | Minimum Inhibitory Concentration ([6]; Peptone medium): 6 µg/mL | Live bacteria count in 1 ml after 60 min. [7]: 2800 | Minimum Inhibitory Concentration ([8]; PYG medium): 24 µg/mL | Minimum Inhibitory Concentration ([8]; Peptone medium): 9 µg/mL | Live bacteria count in 1 ml after 60 min. [9]: 1300 | Survival rate ([9]; 60 min): 0.04% | Live bacteria count in 1 ml after 60 min. [10]: 2300 | Minimum Inhibitory Concentration ([11]; PYG medium): 2 µg/mL | Minimum Inhibitory Concentration ([11]; Peptone medium): 0.6 µg/mL | Minimum Inhibitory Concentration ([12]; PYG medium): 18 µg/mL | Minimum Inhibitory Concentration ([12]; Peptone medium): 12 µg/mL | Live bacteria count in 1 ml after 60 min. [13]: 7.7 × 10^5 | Live bacteria count in 1 ml after 60 min. [14]: 1700
